Experimental data: paper PMC10726135
The list shows a part of the results. At the low end of the ranking, values are background and their order means little. Measured with an extract: partners may take part in the binding.

The sequences below were run against T1, HNF4alpha8 (COS-7 nuclear extract) (UniProt P41235-5) (assay: protein-binding microarray). Conditions: COS-7 nuclear extract on double-stranded Agilent 4x180k PBM; binding buffer, salt, pH and temperature not given; high values mean tight binding; double strand, one strand shown; sequences stand for … in …GCCTAGGGAGATTAGAGTATCGGTCGA.
T1 sequence: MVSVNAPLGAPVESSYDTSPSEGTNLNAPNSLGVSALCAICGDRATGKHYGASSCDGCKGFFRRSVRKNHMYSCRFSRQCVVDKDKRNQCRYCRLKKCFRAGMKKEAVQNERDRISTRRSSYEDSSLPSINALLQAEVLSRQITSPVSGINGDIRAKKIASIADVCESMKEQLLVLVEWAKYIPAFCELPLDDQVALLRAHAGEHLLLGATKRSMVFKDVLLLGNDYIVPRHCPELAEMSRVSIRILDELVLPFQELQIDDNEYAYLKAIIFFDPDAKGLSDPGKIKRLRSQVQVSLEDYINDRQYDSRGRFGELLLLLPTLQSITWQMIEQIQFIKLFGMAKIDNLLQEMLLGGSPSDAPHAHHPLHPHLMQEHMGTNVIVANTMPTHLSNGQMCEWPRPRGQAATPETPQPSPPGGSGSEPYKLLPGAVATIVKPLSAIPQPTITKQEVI

Sequence	binding signal (log2 normalized intensity)
ATGAATAACTTGAATTGATTGCCAAGAGGG	-1.28
ACTGGAGCAAAGGTCACTCTTGCTAAGCTT	5.06
GCTGCTTCTCGTCCCCGCCCGAGCCGAACC	3.05
CAGGGTTAAGGTTTTGTAACACAGAGGCAG	0.757
TGCCCTTTGTCCAGGGTGAGAGGGACCCTT	2.83
GGATGTCTTTTTCTGACCCATGGGTTGAGG	2.27
GGTATGTACTTTCTTTTGGCTCTCTCTCTT	1.06
AACCCAGCAAACCTGTCTCTCTGCATTCCT	-1.33
CATCAAACACTCACTGGGAGAGAAAGCTAA	-1.39
GTGCAGATTCCACACTGGCTAGATAAGGCT	-1.34
CTTTTATCTTAGGTAATAAGCCTGAATTCT	-0.504
TTGCAAAATCCTTAGCAAATAGAGATGCAT	-1.28
AACTGACACTTGTTTGAATTGTGATAATAA	1.04
TCACCTTTGCTCTGATCTTTGACTTCTAGT	3.44
TCATGCTTTCATCTCCCCAACACTTAAAAC	2.8
TGCAGAGAGAGAGGGAGACAACCTTTGGTC	6.08
AAGCAGAGGAGTGGCCATGATGCCATCTGG	-1.34
TTGGGGAAGAATAGATTCCATAGATAAGAG	-1.45
CTACCTGACCTGGCATACTACAGAAATCTT	-0.612
ATTAGCTGGGGACCCGTCGCTGCTGCACAC	-1.35
CCTTCAAATCAGCCAGTGATTCAACTCTGA	0.78
AAGAAGGTTTACTCAAGCAAAAAGTTTGGA	-0.349
ATGGAAGCCTTACCAGTAGGACCACATTCA	-1.33
CTTTGCCTGCCCATCCCGTGGACTCTGCCT	4.23
CTACATTAGCAGCGCCACCAACCATAATTT	2.5

Sequence	binding signal (log2 normalized intensity)
GTTTTTTCTTATTTGCTCTCCTGAGGCAAG	0.989
GCTACACGGGCCTGAAAACTGGAGGCCGCG	-1.3
CAGCTGCTGGTCAAAGGGCATTACTTGCTG	3.81
ATGTTTTTGTGTGAGGGAGAAGTTTTATGG	1.58
TAGCTTTAGCCGGACTTTGTCCTTTGATTT	7.5
TCCTCTCTGAAGGATTTAAATGGAATGACC	2.77
AAAGGACATCTCCGAGTCCAGGGATAACAG	0.428
AAGGTCACTTCGCATTTCCAAAAGAAGAAT	-1.28
AGTCATGTCTTCATGCTTTCAGCCTCTCTG	0.0037
GAGCGGCCTTCGCACCTGCCTGTCTCACCT	-0.885
CACTTCTCACATCACGTCTCTCTGGGGCCC	0.42
CTTCGTCCTTGCCCCTGGCTGGGCCCTGAC	0.733
TCAAAGGTGAGTGGGGAAAGAGCCCCTTTG	-1.31
CATGCCTAGGTAAGCCCACTAGGGAATGAA	-1.33
GAAAAGAAGGATAGAGAGTTGGGAGGGAAC	-1.29
AAAGACTTGCTCATTGATGAGTGACCTTTG	7
TCAGCCTTCTCCGCGGCGGGCCCTCGACCT	0.757
CAGCGACTTGGGAGGCTGAGGTGGAAGGAT	-1.16
TCACCTACTGACCTTTCTCCCTTTTCACAG	3.5
TGCCCCAGGAATGCCTTTTCTTTCATGTTG	1.3
AATAGATGGCGCAGCGGGTCAATTAGCTTG	1.09
GCTAGGCAGGCTCAGAACTACCAATGTTTA	-1.37
AGGCAAAGGTGTCAGGACCTTTCTTTATGG	0.451
GTAAATAACATTGCTGACCCCCTACATAGA	4.34
TGCAATGAAAGTCCACTTGTCTGGCCTTCC	1.99

Sequence	binding signal (log2 normalized intensity)
CCTCTTTCCTGCAGGCCCATCTGGGACTTC	1.66
TTGGTTCAAGAGAAATGTTATCTCAGTAGA	-0.659
CAAGGGCATTTGCGTAGGCTGTCAGAGTGC	-1.22
CATGCTATGCTCTCTCTCCACCTGGAGGGA	-0.886
ATTTTACTACTAACCGAAAGTCTGACCCTT	5.19
TCTAAGGCAAAACACCCCTTTCACTTCTTC	0.915
CAACTTTCTCCTCCAGGACCTTGCCCTTTA	5.41
ACAAGGAGATGGCCCCTCTCTTTTATTATA	0.411
TAAGGTTTCTCAGCCCCATCCCCCAATACA	5.76
AGACAGAAGTAAAACAGGTAGAGAGCTGTC	-1.22
GTCTTACTGATGGGCAAAGTTTTCAAGAAT	1.24
AGTGGCCTGAGGCAGCCAGTGAGTGCAGCA	-1.07
CAGAGTTCACCCCATTTTGTCCCTCCCTGC	3.92
CCATCTTGTGGCCATGCTTAGGACTGCAGG	-0.417
TCTGCTGTACATATTTGCCAAGTGATAAGG	1.01
AAGAAGCTCTGGCGCCATCTGGTTTCTTTA	-1.02
TACACAGCAGCTTTAGTCAGAGATTTCTTT	-1.21
TGTGAGCCAATTCAGCAAACAAAGGCACTT	-0.957
GGCGTGCTGTGTACTTTGAACTGAAGGATA	5.65
AAAGCCCAAGGGATGTCCATGAGGAGTTAA	-1.22
TAAGGACAACCGGTAGCACAACATACTTGG	-1.33
AGGGGCACTCTCTGTTATCAGACACAAGAA	-1.25
CAGGAATGTTCAAGAAGTTCCAAAGGCCAG	2.27
ACCAGAACTTCTTATCACTTGGTGGACATG	1.66
GGGCAGCAAACCTACCTGAACTTTGCCCCA	8.83

Sequence	binding signal (log2 normalized intensity)
TCAAAGGTCAAAGGGCATAGCCTCAGGGAC	5.77
CTGCTTCCAAAGAGCTCAACCTGTGAAAAT	-1.36
ATCAAATCCTAACATGCTGCAGGCATTTCT	-1.11
TCAAGCTCAATGCAACCAGTTGGTGGGTCA	1.44
CACTCTCTGGGTTAAACGTGCAGCAATAGG	0.84
TTTCTCCCCTGACTACCAGCCAGTAGGAGT	1.66
AATTTAGATACTCACCAGTGGGCCCAGAGC	-1.38
TTGAGAACTTTGACACCGAGGCATATTTAA	1.3
CCGAGAATGCAGCCTTATCTTCCAGCCCTG	-1.31
CATGACCCTTTGCAGGTGGGAGAGGGGGAC	-1.01
GTCCAAGAAAAAGGAGCAGATGGCTAGTGA	-1.36
TTCTAGGTAGATAAGGGAGTTTCAGAGGAC	-1.35
GACTTTAATCTCCAAGTAACTGAAACTACA	-1.31
GGGGTCAGATAATTCTTTGCTGTGGTAGGC	1.74
GCTTTAAAATGGGTACAGACAATAGGAAGA	-1.27
GGAGGCCGCGACAAGCGTCGCTGAGTGGAG	-1.32
ACACACGTTCCTGACAGACTGCCATTCCAG	-1.37
CTGGCATCTGGTCAGGGGTCAAGAAGCTCT	3.11
ACATACTTGGAGACAGTCACTCCCACCCTT	2.5
GGTGACCGGACACAAAAGCTGCTGCCAAGC	-1.21
CTTATCTTTGACCTTACCAGCCCACTCTTA	1.99
GGGTCAGAACCTGCCCATGACCTTTGGACT	10.8
CTGCTAAACCAACACCAGCAACCGCCTACC	-1.31
GGATTCTGGCTAAACCAGCCTAACAGGATT	-1.37
ATTTTTCCCTTTGATATTTATCAAGATGAA	0.842

Sequence	binding signal (log2 normalized intensity)
CTTGTTTTGGGGGTTGGTATTACAAAGCAA	0.688
GACCTGACACCCGCTGGCGCCATCCAAAGG	-1.21
GAGTTAACTATTGAGACTTTGGGGTTTTAT	0.851
CAGCTCTCTCCCTTATCTGAATTCCAGCAT	-1.19
GATCAGGGCCCCTTCCTGGGGGAGTTTCCT	-1.35
AGGAGTCCACTGTGTTCTTGTTTGCTAAGT	1.85
TCCCAGCCCCTAGCCCTAAGCAGGCACATT	2.64
TTCTGATTTGATAAGATGTGTAAAACACAA	0.123
GGATGGCCATTGTTCATACTGCAGCTCTGC	-1.29
TTGGTCTGCTGAGTCTCATGATTAGATTGA	1.1
AAGGCTGTTTGCACCGTGTGCTTTGTAGCA	0.24
ACTTTGACCTAGAAGCCAGGGACCAGGAAG	-0.796
TTTGGGCATACAAAACAACCACTCTTATCA	-1.41
ATCAGAGATGGATTACATGGGAGATAGAGC	-1.23
GATAAGGGCCACAGATGGCCTCACTCGGTG	-1.21
AATTTGTCTAGCGCAAATGATCAAAGGTTG	4.39
TTTCAGTGCCCTTTGAGATTTGCATTCATG	2.52
AGAGGGCCTCTAGCCCAATATTTGCTTACC	-1.37
TCTCTGTAACATTCCTAGATATCAGGAAGG	0.0741
CACCCAGAACTTTGACCGTTTGATTATTTG	2.96
CCAGGTTGCATCAGCTGGGCTCGGCGCTCC	-1.25
CCTAAAAGCTTTCTTGGGCAAGAAAGGGGT	-1.2
TCCAAAACATTGTAGAATTATCCAGATCAA	-0.933
ATAAGATGAAGCTCTCAGAATAGCAAATCT	-1.44
TCCCTCATATAATTTACATAACAGGTTTGT	1.72

Sequence	binding signal (log2 normalized intensity)
TCTTTTCTAAGATATTTGCATAGGCATTGT	0.77
TGTTTGCAGATGGTTTCATCTGGTTTCTGT	1.8
ATTGAGGCCAGCAAAGGGCAAGTAAATGTG	0.992
CTGACCTTTACCCATTCCTTAGTGCATGGG	3.87
ATACACCTTGCCTGGCTACCTCTTAGCTAC	-1.3
GACCTCAATGTGCTCATCCATAAAATGGGG	0.132
CTATCAGTTGAGATTTATTCCCAGGTTCCA	0.833
CCAGATGTCTGGCTAAGACCTTTAGTTAGC	1.54
CCCTGGACTCAGCTCCCATAGAGTCCACCA	3.15
TAACCTTTGGCTGGTAGAGCAGGTTTCAGA	1.98
GGGGACTTCACATGCCTTTGTAGTTACCCA	0.846
ATATCATTAACCTATTATTTTATAGAAAAG	1.22
CTGCGTTTCTCCTCTCTGGGCTTCCATTGT	1.03
CTTCATGGAGAGAATTCCCATCCCACTAGG	-1.42
CCTAAGCCCTGCCACCCCCGTTAATTTCTA	2.98
AAAAAAAAAAAAGAACACAGTGTAGAAGGC	-1.21
AGATAATGGGGGAGCCACTGCAGCTTTCTG	-1.36
AAAGATCAGTGTACTTAAAAATGCCTTTCA	-1.29
AGGAGGGAGGAGCATTTCACAGAAATTTTT	-1.33
CCTCCCCCCAGTTCCCTGGGTCGCCAAGCC	3.7
